Test results taken from paper PMC4336329 (PLoS ONE, 2015).
The whole screen tested about 310,000 compounds, of which about 14,000 (4.5%) showed an effect of 50% or more. The effect is printed as a negative number. This is one part of the list.

Biological target: human ether-à-go-go-related gene (hERG) potassium channel (human, UniProt Q12809)
Experiment: primary screen, population patch clamp on CHO cells stably expressing hERG
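Also: peak tail current of the secondary pulse compared with the same well before compound.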

human ether-à-go-go-related gene (hERG) potassium channel, sequence (Q12809 whole entry, looked up): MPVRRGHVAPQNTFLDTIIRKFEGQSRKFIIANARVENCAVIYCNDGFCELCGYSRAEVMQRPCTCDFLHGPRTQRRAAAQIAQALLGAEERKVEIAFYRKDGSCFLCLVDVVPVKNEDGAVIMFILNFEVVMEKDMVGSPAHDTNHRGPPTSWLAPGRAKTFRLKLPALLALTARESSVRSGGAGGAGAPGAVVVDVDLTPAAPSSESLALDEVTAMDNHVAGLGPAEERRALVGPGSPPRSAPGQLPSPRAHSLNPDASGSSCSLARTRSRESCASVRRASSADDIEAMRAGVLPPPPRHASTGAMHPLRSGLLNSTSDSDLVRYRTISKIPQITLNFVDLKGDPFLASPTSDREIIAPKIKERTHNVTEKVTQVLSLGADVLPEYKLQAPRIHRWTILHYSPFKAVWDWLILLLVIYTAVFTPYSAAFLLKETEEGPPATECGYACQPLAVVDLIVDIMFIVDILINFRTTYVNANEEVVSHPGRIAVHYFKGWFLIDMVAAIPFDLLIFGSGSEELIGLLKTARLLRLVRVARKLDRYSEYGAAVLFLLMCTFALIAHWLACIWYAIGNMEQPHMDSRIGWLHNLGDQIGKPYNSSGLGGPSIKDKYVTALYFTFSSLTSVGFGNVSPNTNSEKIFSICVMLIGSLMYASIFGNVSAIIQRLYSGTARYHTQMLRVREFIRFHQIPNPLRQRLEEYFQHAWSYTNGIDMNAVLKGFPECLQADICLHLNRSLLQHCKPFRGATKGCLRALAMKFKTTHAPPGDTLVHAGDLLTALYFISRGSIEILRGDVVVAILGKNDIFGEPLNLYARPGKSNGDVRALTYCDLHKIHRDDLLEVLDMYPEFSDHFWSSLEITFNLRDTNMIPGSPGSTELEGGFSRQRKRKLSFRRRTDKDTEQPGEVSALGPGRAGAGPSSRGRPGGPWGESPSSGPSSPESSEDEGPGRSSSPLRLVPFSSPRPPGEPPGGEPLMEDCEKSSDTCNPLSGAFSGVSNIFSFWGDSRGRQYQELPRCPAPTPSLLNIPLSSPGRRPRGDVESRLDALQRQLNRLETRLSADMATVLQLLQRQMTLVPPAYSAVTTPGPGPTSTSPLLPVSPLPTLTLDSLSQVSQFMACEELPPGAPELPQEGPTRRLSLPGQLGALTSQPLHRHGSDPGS

Structure (SMILES) | hERG current change (%, negative = inhibition) at 10uM
COc1ccc2c3n(nc2c1)CCN=C3c1ccc(C)cc1 | -14.3%
COc1ccc(-c2nc(-c3ccccc3)no2)c(OC)c1 | -5.16%
CS(=O)(=O)c1nc2c(cc1C#N)CCCC2 | 14.9%
CCN(CC)CCOC(=O)C12CC3CC(CC(C3)C1)C2 | -5.01%
CCN1C(=O)CC(N2CCC(c3nc4ccccc4[nH]3)CC2)C1=O (stereo not shown) | 1.03%
Cc1ccc(-c2noc(C3CCCN(C(=O)c4ccccc4)C3)n2)o1 (stereo not shown) | -13.1%
COc1ccc(CC(=O)Nc2ccccc2N2CCOCC2)cc1OC | 4.34%
COC(=O)c1ccccc1S(=O)(=O)NC(=O)c1ccccc1 | -1.01%
CC/C(=N\NC(=O)C(N)=O)c1ccccc1O | 12.6%
CCc1cc2c(SCC(=O)N(C)C3CCS(=O)(=O)C3)ncnc2s1 (stereo not shown) | -20.1%
CCOP(=O)(OCC)c1ccc(OP(=O)(c2cccc([N+](=O)[O-])c2)c2cccc([N+](=O)[O-])c2)cc1 | 14.3%
Cc1ccccc1NC(=O)CSc1n[nH]c(-c2ccco2)n1 | 10.1%
CCCCN1C(=S)SC(C)(C)C1/[N+]([O-])=C/c1cccnc1 (stereo not shown) | -2.41%
Cc1ccc(C2C(C#N)=C(N)Oc3n[nH]c(-c4cccs4)c32)s1 (stereo not shown) | 13.9%
N#Cc1ccc(C(=O)N2CCN(S(=O)(=O)c3ccc(Cl)s3)CC2)cc1 | -49.9%
Cc1ccc(-n2c(SCC(=O)N(C)C3CCS(=O)(=O)C3)nc3ccccc3c2=O)cc1 (stereo not shown) | 11%
COc1ccc(CCNC(=O)CSC2=NS(=O)(=O)c3cc(Cl)ccc3N2)cc1OC | 10.6%
CC(=O)Nc1ccc(NC(=O)C(C)Sc2n[nH]c(=O)n2Cc2ccccc2)cc1 (stereo not shown) | 16%
Cc1ccc(C(CC(=O)N2CCNCC2)c2ccccc2)c(O)c1C (stereo not shown) | -63.8%
COc1ccc(/C=C/C(=O)OCC(=O)Nc2cc(C(N)=O)cc(C(N)=O)c2)cc1 | 18.2%

Structure (SMILES) | hERG current change (%, negative = inhibition) at 10uM
COC(=O)c1ccc(NC(=O)NC2CCCCC2)cc1 | 7.92%
Cc1ccc(Cl)cc1NC(=O)COC(=O)c1ccc(CN2CCCC2=O)cc1 | 7.64%
O=C(O)CCCCCNC(=O)c1cccc(Br)c1 | 12%
Cc1ccnc(NC(=O)c2cc3ccccc3o2)c1 | -18.4%
CCOc1ccc(C2Sc3ccccc3NC3=C2C(=O)OC3)cc1 (stereo not shown) | -6.58%
Cc1ccc(C)c(NC(=O)C(CC(=O)O)C2CCCO2)c1 (stereo not shown) | 10.3%
O=C(Cn1ncc2c3ccccc3n(Cc3ccccc3F)c2c1=O)NCCCN1CCCC1=O | -5%
C/C(=N\NC(=S)NCCc1ccccc1)c1ccc(C)cc1 | 8.17%
CCn1nc(C)c(CN2CCN(Cc3ccc(OC)c(C)c3C)C(CCO)C2)c1C (stereo not shown) | -45.8%
CCOC(=O)CC(NCc1ccc(OC)c(OCC)c1)c1ccc(C)cc1.Cl (stereo not shown) | -39%
C(=N\N1CCN(c2ccccn2)CC1)/c1cccc2ccccc12 | 9.74%
Cc1nnsc1-c1c(C(=O)O)c(C)nn1-c1ccc(OC(F)(F)F)cc1 | 15%
CSc1ccccc1C(=O)Nc1ccccc1C(=O)NC(C)C | 45.3%
CCOC(=O)Cn1c(=O)oc2cc(S(=O)(=O)NC(C)c3ccccc3)ccc21 (stereo not shown) | -18.9%
NC1=NC(=O)/C(=C/c2ccsc2)S1 | 15.3%
CCOc1ccc(CN(C)C(=O)c2ccc3c(c2)NC(=O)C(C)S3)cc1OC (stereo not shown) | -47.4%
O=C(NCCC1=CCCCC1)c1cc2ccccc2oc1=O | 10.1%
O=C(C1CCN(c2nc(-c3ccccc3)nc3c2CCC3)CC1)N1CCC(O)CC1 | -33.4%
O=C(NCc1ccc(Cl)cc1)c1cc([N+](=O)[O-])ccc1Cl | 19.3%
Cc1ccc(S(=O)(=O)CCC(=O)Nc2nc(-c3ccccn3)cs2)cc1 | -16%

Structure (SMILES) | hERG current change (%, negative = inhibition) at 10uM
N#CCCn1cc(C(=O)NCc2ccccc2)c(-c2cccs2)n1 | -17.6%
O=C(CC1Nc2ccccc2NC1=O)NCc1cccnc1 (stereo not shown) | 0.464%
CN(C(=O)c1cccc(C#N)c1)c1nnc(C2CCCO2)s1 (stereo not shown) | 11.7%
COc1cc(C(=O)NCCNc2nc3cc(C)ccc3cc2C#N)cc(OC)c1OC | 0.746%
CN(Cc1nc(Cc2ccccc2F)no1)[C@@H]1CS(=O)(=O)C[C@H]1O | -41.6%
CCOc1ccc(/C(O)=C2/C(=O)C(=O)N(CCN(C)C)C2c2ccccc2)cc1Cl (stereo not shown) | -5.2%
CC(=O)N1CCc2cc(S(=O)(=O)NC(Cc3ccccc3)C(=O)NCCN3CCCCC3C)ccc21 (stereo not shown) | 5.72%
CCNC(=O)CC1C(=O)N(c2ccc(F)cc2)C(=O)N1CCc1ccc(OC)cc1 (stereo not shown) | -23.5%
Cc1cc2ccccc2c(=O)n1CC(=O)NCc1ccco1 | 13.8%
Cc1nc2n[nH]c(N)c2c2c1CCCC2 | -1.41%
COc1ccc(SC[C@H](CC(C)C)N2CCN(C)CCC2=O)cc1 | -36.3%
CCC1=C(OC(=O)c2ccccc2)C(C)(C)C(c2ccccc2)OC1=O (stereo not shown) | -5.55%
O=[N+]([O-])c1cc2c(cc1Br)CCN2 | 11.2%
CCOC(=O)CN1C(=O)N(CC(=O)OCC)C(c2ccccc2)(c2ccccc2)C1=O | -11.1%
O=C1c2oc3ccccc3c(=O)c2C(c2cccnc2)N1CCCN1CCOCC1 (stereo not shown) | 10.8%
Brc1ccccc1-c1ccccc1 | 14.1%
Cc1c(N2C(=O)c3ccc(F)cc3C2=O)c(=O)n(-c2ccccc2)n1C | 13.6%
Nc1c(S(=O)(=O)c2cccs2)c2nc3ccccc3nc2n1Cc1cccs1 | 7.16%
